# From PubChem BioAssay AID1347055 (National Center for Advancing Translational Sciences (NCATS), 2019)
# Among all 54,000 compounds or so, about 120 (0.22%) were called active. The inconclusive results got no clear call from the source; some entries with a clear call stand among them for comparison. The call rests on the fitted dose curve; in most records, active means well fitted inhibition curve with a large enough effect; inconclusive means small, poorly fitted or top-dose-only effect, or effect the other way; inactive means flat fitted curve, though single readings scatter. Potencies of inconclusive entries are left out as doubtful fits.
# Target: Fumarate hydratase, mitochondrial (Homo sapiens) (UniProt P07954)
# Test: Identification of activators of human fumarate hydratase by quantitative high-throughput screening; further: the screen sought activators but most active calls are inhibition curves; nearly all actives have a fitted effect of over 45% in size
# Conditions: FH coupled MDH/diaphorase resazurin fluorescence, 15 min; activity change, negative = inhibition: at 79.9 µM (top of the series)
# On the % scale 0 is the no-effect control and ±100 the full control effect; potency means the concentration at half of the fitted maximal effect; tags describe the fitted curve by direction and shape.
# UniProt P07954, sequence (P07954 whole entry, looked up): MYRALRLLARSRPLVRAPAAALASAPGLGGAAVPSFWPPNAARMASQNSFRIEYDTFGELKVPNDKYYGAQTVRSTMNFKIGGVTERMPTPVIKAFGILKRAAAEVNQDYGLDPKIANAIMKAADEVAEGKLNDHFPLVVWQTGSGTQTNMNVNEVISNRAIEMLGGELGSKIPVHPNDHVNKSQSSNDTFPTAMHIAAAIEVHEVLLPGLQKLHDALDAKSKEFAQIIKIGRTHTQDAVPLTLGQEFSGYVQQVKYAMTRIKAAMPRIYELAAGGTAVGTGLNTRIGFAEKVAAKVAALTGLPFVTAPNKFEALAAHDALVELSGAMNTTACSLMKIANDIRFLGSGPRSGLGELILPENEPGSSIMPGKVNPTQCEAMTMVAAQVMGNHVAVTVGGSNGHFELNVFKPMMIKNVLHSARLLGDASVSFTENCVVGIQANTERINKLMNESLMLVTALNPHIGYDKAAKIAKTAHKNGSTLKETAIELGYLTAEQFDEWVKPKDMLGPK
Compound,"activity change, negative = inhibition",Potency
CSc1cccc(NC(=O)C2CCN(S(=O)(=O)c3ccc4[nH]c5c(c4c3)CCCCC5)CC2)c1,inactive: -9.52%,
CCc1ccccc1NC(=O)CCS(=O)(=O)c1cccc2nonc12,,"inconclusive [activator, partial curve]"
COc1ccc(NC(=O)/C=C\C(=O)N(c2ccc(C(C)C)cc2)C(C(=O)NCc2ccco2)c2ccc(F)cc2)cc1 (stereo unspecified),,"inconclusive [inhibitor, partial curve, poor fit]"
Cc1cccc(N2CCN(c3nc4ccc(C)cc4n4cnnc34)CC2C)c1 (stereo unspecified),,"inconclusive [inhibitor, partial curve, poor fit]"
CCN1CCN(CCCNC(=O)c2ccc3nc(Cc4ccccc4)oc3c2)CC1,,"inconclusive [inhibitor, single point]"
CCOc1ccc(Nc2c(S(=O)(=O)c3ccccc3)cnc3ccccc23)cc1,,"inconclusive [inhibitor, single point]"
C=CCN1CCc2c(cc(O)c(O)c2Br)[C@@H](c2ccccc2)C1,,"inconclusive [inhibitor, single point]"
CCOC(=O)c1ccc(N2C(=O)c3n[nH]c(-c4cccs4)c3C2c2ccc(Cl)cc2Cl)cc1 (stereo unspecified),inactive: -20.3%,
O=C(O)c1cnn(-c2nc3cc(OC(F)(F)F)c(Cl)cc3[nH]2)c1,,"inconclusive [activator, partial curve]"
Cc1ccc2c(c1)c(=O)c1ccccc1n2CCCC(=O)Nc1c(F)cccc1F,inactive: -11.9%,
CCCCN1C(=O)c2[nH]nc(-c3ccccc3O)c2C1c1ccc(OCc2ccccc2)c(OC)c1 (stereo unspecified),,"inconclusive [inhibitor, partial curve, poor fit]"
COc1ccc(Cn2ccc3nc(C)c(C(=O)N4CCN(c5ccc(F)cc5)CC4)cc3c2=O)cc1,,"inconclusive [inhibitor, single point]"
COc1ccc(OC)c(Nc2nc3ccccc3nc2-n2nc(C)cc2C)c1,,"inconclusive [inhibitor, partial curve, poor fit]"
Cc1ccc(C(=O)CSc2nc3cc(C(=O)NC4CCCC4)ccc3c(=O)n2CC2CCCO2)c(C)c1 (stereo unspecified),,"inconclusive [activator, single point]"
Oc1ccc(OCc2ccccc2)cc1,,inactive
CCOc1ccccc1NC(=O)CCS(=O)(=O)c1ccc2c(c1)oc(=O)n2C,,"inconclusive [inhibitor, partial curve]"
C[C@H](Nc1ncnc2nc[nH]c12)c1cc2ccc(F)cc2nc1-c1ccccn1,inactive: 3.91%,
CN[C@@H]1[C@@H](O)[C@@H](O[C@@H]2[C@@H](O)[C@H](O[C@H]3O[C@H](CN)[C@@H](O)[C@H](O)[C@@H]3O)[C@@H](N)C[C@@H]2NC(=O)[C@@H](O)CN)OC[C@]1(C)O,inactive: 5.51% [at 53.3 µM],
O=C1Nc2ccc(I)cc2C1=Cc1cc(Br)c(O)c(Br)c1,,"inconclusive [inhibitor, partial curve]"
CCOC(=O)c1ccc(N2C(=O)c3n[nH]c(-c4ccco4)c3C2c2ccccc2OC)cc1 (stereo unspecified),,"inconclusive [inhibitor, single point]"
COc1ccc(-c2csc3ncnc(Nc4ccccc4)c23)cc1,,"inconclusive [inhibitor, single point]"

Compound,"activity change, negative = inhibition",Potency
O=C(NCCc1cccs1)c1ccc(Cn2c(SCc3cccc(F)c3)nc3cccnc32)cc1,,"inconclusive [inhibitor, partial curve, poor fit]"
CCOc1ccccc1NC(=O)Cn1c(=O)oc2ccccc21,,"inconclusive [activator, partial curve, poor fit]"
Cc1ccccc1Nc1c(-c2c[nH]c3ccccc23)nc2ccc(Cl)cn12,,"inconclusive [inhibitor, partial curve, poor fit]"
Cc1ccc(Cl)c(Nc2ccccc2C(=O)O)c1Cl,,"inconclusive [inhibitor, partial curve, poor fit]"
CCOc1ccc(CNC(=O)c2ccc(NC(=O)N3CCCCc4ccccc43)cc2)cc1,inconclusive: -38.3% [inhibitor],
COc1ccc(NC(=O)NC(C)c2c(-n3cccc3)sc(C)c2C)cc1OC (stereo unspecified),,"inconclusive [inhibitor, single point]"
COc1ccc(CCNS(=O)(=O)c2c(C)nc3sc(C)cn3c2=O)cc1OC,inactive: -1.33%,
CCc1cccc(NC(=O)c2ccc3c(c2)N(Cc2cccc(Cl)c2)C(=O)c2ccccc2S3=O)c1 (stereo unspecified),,"inconclusive [inhibitor, partial curve, poor fit]"
CCOC(=O)c1c(C)[nH]c(C)c1S(=O)(=O)N1CCN(c2cc(Cl)ccc2C)CC1,,"inconclusive [inhibitor, single point]"
CC1CCC2(OC1)OC1CC3C4CC=C5CC(O)CC(O[C@@H]6OC[C@@H](O)[C@H](O)[C@H]6O)C5(C)C4CCC3(C)C1(O)C2C (stereo partly specified),inactive: 1.13% [at 20.6 µM],
Cc1cccc(NC(=O)c2cn(-c3ccccc3)nc2-c2ccccc2)c1C,,"inconclusive [inhibitor, single point]"
COc1cccc(NS(=O)(=O)c2ccc3[nH]cc(C(=O)NC(C)c4ccccc4)c(=O)c3c2)c1 (stereo unspecified),,"inconclusive [inhibitor, partial curve]"
CC(C)c1ccc(NC(=O)Cn2nnc(C(=O)NCc3ccc4c(c3)OCO4)c2N)cc1,inactive: -2.31%,
COc1ccc(OCc2nc3ccccc3n2Cc2ccc(C(C)(C)C)cc2)cc1,,"inconclusive [inhibitor, single point]"
CCOc1ccc(NC(=O)c2ccc3c(=O)n4c(nc3c2)CCCCC4)cc1,inactive: -19.2%,
Cc1ccc(C)c(N2CCN(CCCNC(=O)c3cnn(-c4cccc(Cl)c4)c3C3CCN(C(=O)OC(C)(C)C)CC3)CC2)c1,,"inconclusive [inhibitor, partial curve]"
Cc1ccc(-c2nnc(Nc3ccc(OCC(N)=O)cc3)c3ccccc23)cc1S(=O)(=O)NCC1CCCO1 (stereo unspecified),,"inconclusive [inhibitor, partial curve]"
O=C(CCn1cnc2onc(-c3ccc(F)cc3)c2c1=O)Nc1cccc(C(F)(F)F)c1,inconclusive: -30.8% [inhibitor],
Cc1ccn2c(Nc3ccccc3)c(-c3c[nH]c4ccccc34)nc2c1,,"inconclusive [inhibitor, single point]"
Cc1ccccc1NC(=O)CSc1ccc(-c2ccccn2)nn1,,"inconclusive [activator, full curve, poor fit]"
CCCOc1ccc(C2C(=O)N(C3CCCCC3)CC(=O)N2C2CCCCC2)cc1OC (stereo unspecified),inactive: -10.3%,

Compound,"activity change, negative = inhibition",Potency
Cc1cccc(Nc2nc(-c3ccccc3)nc3ccccc23)c1,,"inconclusive [inhibitor, single point]"
O=C(CSc1nc2c([nH]c3ccccc32)c(=O)n1-c1ccccc1F)Nc1cccc(Cl)c1,,"inconclusive [inhibitor, partial curve]"
O=S(=O)(c1ccccc1)n1nc(-c2ccco2)nc1NCc1ccccc1,inactive: -14.3%,
CCc1ccccc1N(CC)C(=O)c1cc2c(s1)-c1ccccc1SC2,,"inconclusive [inhibitor, single point]"
COCCOC(=O)C1=C(C)NC(C)=C(C(=O)OC/C=C/c2ccccc2)C1c1cccc([N+](=O)[O-])c1 (stereo unspecified),,"inconclusive [inhibitor, single point]"
COc1ccccc1/C=C/c1nc(C#N)c(NCc2ccccc2)o1,,"inconclusive [inhibitor, partial curve, poor fit]"
COc1cc2nc(NCCc3cccc(C)c3)n3nc(-c4ccccc4)nc3c2cc1OC,,"inconclusive [inhibitor, partial curve, poor fit]"
COc1ccc2c(CNC3CCC(C)CC3)c(C(=O)O)n(Cc3ccc(F)cc3)c2c1 (stereo unspecified),,"inconclusive [inhibitor, partial curve, poor fit]"
CCOCCn1ccc2c(OCC(=O)Nc3cc(C)cc(C)c3)cccc2c1=O,inactive: -22.5%,
Cn1c(=O)oc2cc(S(=O)(=O)CCC(=O)NCc3ccc(Cl)cc3)ccc21,,"inconclusive [inhibitor, partial curve, poor fit]"
Cc1ccccc1Sc1ccc(/C=C2\SC(=S)NC2=O)cc1[N+](=O)[O-],,active: 28.2 µM
O=S(=O)(NCCc1csc2nc(-c3ccc(Cl)cc3)nn12)c1cccs1,,"inconclusive [inhibitor, single point]"
Cc1ccc(S(=O)(=O)c2nc(-c3cccs3)oc2N2CCC(C)CC2)cc1,,"inconclusive [inhibitor, single point]"
CC(C)CCNC(=O)c1ccc2nc(Cc3ccccc3)oc2c1,,"inconclusive [inhibitor, single point]"
CCC(O)C(C)C1CCC(C(C)C(=O)O)O1 (stereo unspecified),inactive: 0.726%,
CCCCOc1cccc(C2c3c(-c4cc(C)ccc4O)n[nH]c3C(=O)N2CCOC)c1 (stereo unspecified),,"inconclusive [inhibitor, single point]"
COc1cccc(NC(=O)C2CCCN(c3ncnc4onc(C)c34)C2)c1 (stereo unspecified),inactive: 0.289%,
Cc1ccc2[nH]cc(C(c3ccccc3)c3cccs3)c2c1 (stereo unspecified),,"inconclusive [inhibitor, single point]"
Cc1ccc(NC(=O)C2CCCN(S(=O)(=O)c3cccc4cccnc34)C2)cc1Cl (stereo unspecified),,"inconclusive [inhibitor, partial curve, poor fit]"
